{
  "source": "PubChem BioAssay AID1508642",
  "about": "(National Center for Advancing Translational Sciences (NCATS), 2021)",
  "note": "About 200 (0.47%) of roughly 43,000 compounds were called active. Roughly 12% stayed inconclusive and do not appear here. Calls follow the shape of the dose curve; as a rule, active = well fitted cell-killing curve with a large enough effect; inconclusive = small, poorly fitted or top-dose-only effect, or effect the other way; inactive = flat fitted curve, though single readings scatter. The list shows a part of the results. % is scaled to controls: 0 for no effect and ±100 for the full control effect.",
  "data": [
    {"test": "Cell viability qHTS assay in S16 Pmp22-F2sN cells; also: nearly all actives have a fitted effect of over 65% in size", "conditions": "S16 Pmp22-F2sN Schwann cells viability, CellTiter-Glo, 24 h; series mostly up to 57.5 µM; activity change, negative = cytotoxicity: at the top concentration", "outline": "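S16 Pmp22-F2sN Schwann cells (500-1,000/well) in phenol-red-free DMEM with 10% FBS received 23 nL compound by pin tool for 24 h at 37 °C. Viability was then read as CellTiter-Glo luminescence after 15 min at room temperature.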", "values": [
      {"smiles": "O=C(O)c1ccc(NC(=O)c2ccc(Cl)c(S(=O)(=O)N3CCCCCC3)c2)cc1", "activity change, negative = cytotoxicity": "inactive: 17.8%"},
      {"smiles": "Cc1ccc(NC(=O)CN2C(=O)CCSc3ccccc32)c(C)c1", "activity change, negative = cytotoxicity": "inactive: 13.3%"},
      {"smiles": "COc1ccc(CCNC(=O)c2ccc3c(c2)nc(C)n3-c2ccc(Br)cc2)cc1OC", "activity change, negative = cytotoxicity": "inactive: 10.3%"},
      {"smiles": "Cc1nc2c3ccccc3nc(NNC(=O)CCC(=O)O)n2n1", "activity change, negative = cytotoxicity": "inactive: 8.49%"},
      {"smiles": "CCOC(=O)c1ccccc1NC(=O)CSc1nc(=O)[nH]c2c1CCCC2", "activity change, negative = cytotoxicity": "inactive: 2.18%"},
      {"smiles": "CSc1cccc(-n2nnc(-c3nsc(NC(=O)c4cccs4)n3)c2C)c1", "activity change, negative = cytotoxicity": "inactive: -14.4%"},
      {"smiles": "CCc1ccc(S(=O)(=O)c2nnn3c2nc(N(C)Cc2ccccc2)c2cc(Cl)ccc23)cc1", "activity change, negative = cytotoxicity": "inactive: 10.3%"},
      {"smiles": "COc1cccc(CNC(=O)Cn2c(=O)ccc3cc(S(=O)(=O)N4CCCC4)ccc32)c1", "activity change, negative = cytotoxicity": "inactive: 1.23%"},
      {"smiles": "CCN(CC)CCCNC(=O)c1cn(CC)c2ccc(S(=O)(=O)N3CCC(C)CC3)cc2c1=O", "activity change, negative = cytotoxicity": "inactive: -7.63%"},
      {"smiles": "Cc1cc(=O)n(CC(=O)N2CCCCC2)c2c1c(C)nn2C", "activity change, negative = cytotoxicity": "inactive: 7.33%"},
      {"smiles": "Cc1ccc(NC(=O)CN2C(=O)C(c3ccccc3)=NC23CCCCC3)cc1C", "activity change, negative = cytotoxicity": "inactive: -13.9%"},
      {"smiles": "CCc1ccc2occ(CC(=O)N(Cc3ccccc3)C3CCS(=O)(=O)C3)c2c1", "note": "(stereo unspecified)", "activity change, negative = cytotoxicity": "inactive: 1.59%"},
      {"smiles": "COc1ccc(-n2c(C)nc3c(cnn3-c3ccc(C)c(C)c3)c2=O)cc1Cl", "activity change, negative = cytotoxicity": "inactive: 0.469%"},
      {"smiles": "Cc1c(Cl)cccc1NC(=O)Nc1c[nH]c(=O)[nH]c1=O", "activity change, negative = cytotoxicity": "inactive: 8.84%"},
      {"smiles": "CC1CCCCN1C(=O)CSc1nc(-c2ccccc2)no1", "note": "(stereo unspecified)", "activity change, negative = cytotoxicity": "inactive: 7.87%"},
      {"smiles": "COc1cc(/C=C(/C#N)c2nc(-c3cc4ccccc4oc3=O)cs2)ccc1O", "activity change, negative = cytotoxicity": "inactive: 3.5%"},
      {"smiles": "CCOC(=O)C1=C(CN2CCC(C)CC2)NC(=O)NC1c1ccc(OC(C)C)cc1", "note": "(stereo unspecified)", "activity change, negative = cytotoxicity": "inactive: -9.92%"},
      {"smiles": "Cc1cc(C)c(NC(=O)c2cc(C)nc3c2c(C)nn3-c2cccc(F)c2)c(C)c1", "activity change, negative = cytotoxicity": "inactive: 1.57%"},
      {"smiles": "Cc1cc2oc(C(=O)N(Cc3ccc(Cl)cc3)Cc3ccco3)c(C)c2cc1Cl", "activity change, negative = cytotoxicity": "inactive: 0.707%"},
      {"smiles": "CCN(CC)C(=O)c1c(NC(=O)c2ccccc2F)sc2c1CCC(C(C)(C)C)C2", "note": "(stereo unspecified)", "activity change, negative = cytotoxicity": "inactive: -5.43%"},
      {"smiles": "CCc1ccc(-c2nn(-c3ccc(OC)cc3)c3c2cnc2ccc(OC)cc23)cc1", "activity change, negative = cytotoxicity": "inactive: 13.2%"},
      {"smiles": "CCSc1ccccc1C(=O)N1CCN(c2nc3ccccc3s2)CC1", "activity change, negative = cytotoxicity": "inactive: -6.35%"},
      {"smiles": "Cc1ccc(C)c(NC(=O)CSc2nc3ccccc3nc2N2CCOCC2)c1", "activity change, negative = cytotoxicity": "inactive: -22.6%"},
      {"smiles": "CC(C)(C)OC(=O)N1CCC(c2c(C(=O)N3CCCCC3)cnn2-c2ccc(F)cc2)CC1", "activity change, negative = cytotoxicity": "inactive: -3.6%"},
      {"smiles": "COc1cccc(NC(=O)c2oc3ccc(S(=O)(=O)N(C)C4CCCCC4)cc3c2C)c1", "activity change, negative = cytotoxicity": "inactive: -2.07%"},
      {"smiles": "COC(=O)c1ccc(NC(=O)c2cnn(-c3ccc(Cl)cc3)c2C2CCN(C(=O)OC(C)(C)C)CC2)cc1", "activity change, negative = cytotoxicity": "inactive: -24.7%"},
      {"smiles": "COc1ccccc1C(=O)Nc1cccc(OCc2cc(=O)n3ccccc3n2)c1", "activity change, negative = cytotoxicity": "inactive: -5.98%"},
      {"smiles": "CCC1CCCCN1CCCNC(=O)c1cn(C)c2ccc(S(=O)(=O)N(C)C3CCCCC3)cc2c1=O", "note": "(stereo unspecified)", "activity change, negative = cytotoxicity": "inactive: -29.2%"},
      {"smiles": "COc1cccc(N2CCN(C(=O)c3cccn3-c3nnc(N4CCCCC4)s3)CC2)c1", "activity change, negative = cytotoxicity": "inactive: -7.06%"},
      {"smiles": "O=C(CSc1nccn1Cc1ccc2c(c1)OCO2)Nc1ccccc1F", "activity change, negative = cytotoxicity": "inactive: 5.8%"},
      {"smiles": "COc1cc(NC(=O)CCn2nc(C)cc2C)cc(OC)c1OC", "activity change, negative = cytotoxicity": "inactive: -1.01%"},
      {"smiles": "CCC(C)n1c(SCC(=O)Nc2ccccc2C(=O)OC)nc2ccsc2c1=O", "note": "(stereo unspecified)", "activity change, negative = cytotoxicity": "inactive: -14.1%"},
      {"smiles": "COc1cccc(CNC(=O)c2cccc(N3CCCS3(=O)=O)c2)c1", "activity change, negative = cytotoxicity": "inactive: -2.24%"},
      {"smiles": "CCc1ccc(NC(=O)C2CCCN(S(=O)(=O)c3ccc4c(c3)oc(=O)n4C)C2)cc1", "note": "(stereo unspecified)", "activity change, negative = cytotoxicity": "inactive: -2.51%"},
      {"smiles": "COCCCNC(=O)CCCn1c(SCC(=O)c2ccc(Br)cc2)nc2c(sc3ccccc32)c1=O", "activity change, negative = cytotoxicity": "inactive: -0.285%"},
      {"smiles": "Cc1ccc(C(=O)NCC(c2ccc(Cl)cc2)N2CCCCC2)cc1", "note": "(stereo unspecified)", "activity change, negative = cytotoxicity": "inactive: 2.38%"},
      {"smiles": "CCOc1ccc(C(=O)N2CC(=O)Nc3ccc(C)cc3C2c2ccc(F)cc2)cc1OCC", "note": "(stereo unspecified)", "activity change, negative = cytotoxicity": "inactive: 5.19%"},
      {"smiles": "CCN(C(=O)CSc1nc2ccccc2c2nc(CCn3c(C)nc4ccccc43)nn12)c1cccc(C)c1", "activity change, negative = cytotoxicity": "inactive: 9.65%"},
      {"smiles": "COc1cc(C(=O)NC2(C(F)(F)F)C(=O)NC(C)=C2C#N)cc(OC)c1OC", "note": "(stereo unspecified)", "activity change, negative = cytotoxicity": "inactive: 1.88%"},
      {"smiles": "CCN(CC)S(=O)(=O)c1ccc2c(c1)N(CC(=O)N1CCN(c3cccc(C)c3)C(C)C1)C(=O)CO2", "note": "(stereo unspecified)", "activity change, negative = cytotoxicity": "inactive: 14.6%"},
      {"smiles": "Cc1cccc(NC(=O)CCn2cnnn2)c1", "activity change, negative = cytotoxicity": "inactive: -0.656%"},
      {"smiles": "COc1ccc(-c2csc3nc(-c4ccc(Cl)cc4)oc(=O)c23)cc1", "activity change, negative = cytotoxicity": "inactive: 5%"},
      {"smiles": "CCc1cccc(C)c1NC(=O)CN1CCN(Cc2ccccc2Cl)S1(=O)=O", "activity change, negative = cytotoxicity": "inactive: -14.3%"},
      {"smiles": "O=C(Nc1ccc(-c2nc3cc(Cl)ccc3o2)cc1)c1cc(Br)ccc1Cl", "activity change, negative = cytotoxicity": "inactive: 2.03%"},
      {"smiles": "Cn1c(=O)oc2cc(S(=O)(=O)NC(CC(=O)O)c3cccc(Br)c3)ccc21", "note": "(stereo unspecified)", "activity change, negative = cytotoxicity": "inactive: 7.95%"},
      {"smiles": "COc1ccc(NC(=O)CSc2nnc(N)s2)cc1", "activity change, negative = cytotoxicity": "inactive: 1.59%"},
      {"smiles": "CC(=O)c1ccc(N2CCN(C(=O)Nc3ccc(C)cc3)CC2)cc1", "activity change, negative = cytotoxicity": "inactive: -3.28%"},
      {"smiles": "Cc1ccc(Nc2c(-c3ccc(N4CCOCC4)cc3)nc3ccc(C)cn23)cc1", "activity change, negative = cytotoxicity": "inactive: 8.62%"},
      {"smiles": "COc1ccc(S(=O)(=O)N2CCC(Oc3cccc(C(F)(F)F)c3)CC2)cc1OC", "activity change, negative = cytotoxicity": "inactive: 0.587%"},
      {"smiles": "COc1ccc(N2CC(C(=O)NCCS(=O)(=O)N3CCN(c4ccccc4)CC3)CC2=O)cc1", "note": "(stereo unspecified)", "activity change, negative = cytotoxicity": "inactive: -12.8%"},
      {"smiles": "CCOC(=O)c1cc(-c2ccccc2)n(CCCC(=O)Nc2ccc(C)c(Cl)c2)c1C", "activity change, negative = cytotoxicity": "inactive: -14%"},
      {"smiles": "Cc1ccc2occ(-c3cc(-c4ccccc4)nc4c3COc3ccccc3-4)c(=O)c2c1", "activity change, negative = cytotoxicity": "inactive: 2.68%"},
      {"smiles": "Cc1ccc(C)c(NC(=O)CSc2nc3nccnc3c(=O)n2CCc2c[nH]c3ccccc23)c1", "activity change, negative = cytotoxicity": "inactive: -1.01%"},
      {"smiles": "Cc1ccc(-n2c(=O)c3c(C)c(C(=O)N(C)C)sc3n(CC(=O)N(C)c3ccccc3)c2=O)cc1C", "activity change, negative = cytotoxicity": "inactive: 1.5%"},
      {"smiles": "CCc1cccc(NC(=O)c2cnc(N3CCOCC3)c3ccccc23)c1", "activity change, negative = cytotoxicity": "inactive: -25%"},
      {"smiles": "CN(CC(=O)Nc1ccc(OC(F)(F)F)cc1)S(=O)(=O)c1ccc2c(c1)CCC(=O)N2", "activity change, negative = cytotoxicity": "inactive: -19.2%"},
      {"smiles": "Fc1ccc(N2CCN(Cc3nnc(-c4ccccc4Cl)o3)CC2)cc1", "activity change, negative = cytotoxicity": "inactive: -3.13%"},
      {"smiles": "CCc1cccc(C)c1Nc1c(-c2ccc(F)cc2)nc2sccn12", "activity change, negative = cytotoxicity": "inactive: -0.553%"},
      {"smiles": "N#Cc1nc(-c2ccc(COc3ccc(Cl)cc3)o2)oc1N1CCCCC1", "activity change, negative = cytotoxicity": "inactive: 1.64%"},
      {"smiles": "CCOC(=O)c1scc(-c2ccccc2)c1S(=O)(=O)Nc1ccccc1OC", "activity change, negative = cytotoxicity": "inactive: 1.97%"},
      {"smiles": "COc1ccccc1N1CCN(c2nc3c(S(=O)(=O)c4ccccc4)nnn3c3ccc(Cl)cc23)CC1", "activity change, negative = cytotoxicity": "inactive: 0.393%"}
    ]}
  ]
}
